The results in this text go back to patent US11542275B2, “Substituted imidazolidin-2-one derivatives as PRMT5 inhibitors” (Aurigene Discovery Technologies Limited, priority 2018, dated 2023).

What is called IC50 is the concentration that gives 50% inhibition. Higher therefore signals weaker potency in that assay.

The target of the assay is PRMT5/MEP50 Complex (Homo sapiens (Human), UniProt O14744). Kind of assay: PRMT5 inhibition based on TR-FRET assay. The format is biochemical. Particulars: 32 nM PRMT5:MEP50 complex, 50 nM Histone-H4 peptide, 1 μM SAM, 90 minutes at room temperature. The source says:
Protein arginine methyltransferase 5 (PRMT5) is a type II arginine methyltransferase that catalyze mono- and symmetric demethylation on arginine residues of histone or non-histone proteins in presence of S-adenosylmethionine (AdoMet or SAM) a cofactor responsible for donating the methyl group. PRMT5 is reported to be overexpressed in several human cancers. To identify compounds that inhibit the PRMT5 and decrease its activity, a TR-FRET based assay has been established. Time-resolved fluorescence resonance energy transfer (TR-FRET) HTS assays are homogeneous proximity assays where the interaction of two dye-labeled binding partners is detected by the energy transfer between a donor and an acceptor dye, and the subsequent light emission by the acceptor dye. PRMT5 catalyzes Histone H4 peptide which is biotin tagged to the Lysine amino acid at carboxyl end, in presence of S-adenosyl-1-methionine (SAM) to methylate the peptide. The antibody specific to mono methylated H4 peptide (H4R3) with Ig conjugate binds to the methylated peptide, indirectly binding to the Europium lanthanide. […]
The compound dilutions were prepared as 7.5% DMSO stock solutions in assay buffer. […] The plates were then read on Victor-3 with Excitation at 340 nm and Emissions collected at 615 and 665 nm in TR-FRET protocol. […]
For orientation: In TR-FRET formats the signal depends on donor and acceptor labels being close together.

The compound `CC(=O)N1CCC(c2ccc(CN3CCN(C[C@@H](O)CN4CCc5ccccc5C4)C3=O)nc2)CC1` [Compound 45, (S)-1-((5-(1-acetylpiperidin-4-yl)pyridin-2-yl)methyl)-3-(3-(3,4-dihydroisoquinolin-2(1H)-yl)-2-hydroxypropyl)imidazolidin-2-one] registered an IC50 of 18 nM. This counts as double-digit nanomolar. In the case of `CN1CCC(c2ccc(CN3CCN(C[C@H](O)CN4CCc5ccccc5C4)C3=O)nc2)CC1` [Compound 47, (R)-1-(3-(3,4-dihydroisoquinolin-2(1H)-yl)-2-hydroxypropyl)-3-((5-(1-methylpiperidin-4-yl)pyridin-2-yl)methyl)imidazolidin-2-one] it was 85 nM.
